# Data reported in paper PMC4336329 (PLoS ONE, 2015).
# Hit rate of the full screen: of about 310,000 compounds, about 14,000 (4.5%) showed an effect of 50% or more. Effects have a minus sign here. This is one part of the list.
# Target: human ether-à-go-go-related gene (hERG) potassium channel (human, UniProt Q12809)
# Assay: primary screen, population patch clamp on CHO cells stably expressing hERG
# 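Also: peak tail current of the secondary pulse compared with the same well before compound.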
# Sequence of human ether-à-go-go-related gene (hERG) potassium channel (Q12809 whole entry, looked up): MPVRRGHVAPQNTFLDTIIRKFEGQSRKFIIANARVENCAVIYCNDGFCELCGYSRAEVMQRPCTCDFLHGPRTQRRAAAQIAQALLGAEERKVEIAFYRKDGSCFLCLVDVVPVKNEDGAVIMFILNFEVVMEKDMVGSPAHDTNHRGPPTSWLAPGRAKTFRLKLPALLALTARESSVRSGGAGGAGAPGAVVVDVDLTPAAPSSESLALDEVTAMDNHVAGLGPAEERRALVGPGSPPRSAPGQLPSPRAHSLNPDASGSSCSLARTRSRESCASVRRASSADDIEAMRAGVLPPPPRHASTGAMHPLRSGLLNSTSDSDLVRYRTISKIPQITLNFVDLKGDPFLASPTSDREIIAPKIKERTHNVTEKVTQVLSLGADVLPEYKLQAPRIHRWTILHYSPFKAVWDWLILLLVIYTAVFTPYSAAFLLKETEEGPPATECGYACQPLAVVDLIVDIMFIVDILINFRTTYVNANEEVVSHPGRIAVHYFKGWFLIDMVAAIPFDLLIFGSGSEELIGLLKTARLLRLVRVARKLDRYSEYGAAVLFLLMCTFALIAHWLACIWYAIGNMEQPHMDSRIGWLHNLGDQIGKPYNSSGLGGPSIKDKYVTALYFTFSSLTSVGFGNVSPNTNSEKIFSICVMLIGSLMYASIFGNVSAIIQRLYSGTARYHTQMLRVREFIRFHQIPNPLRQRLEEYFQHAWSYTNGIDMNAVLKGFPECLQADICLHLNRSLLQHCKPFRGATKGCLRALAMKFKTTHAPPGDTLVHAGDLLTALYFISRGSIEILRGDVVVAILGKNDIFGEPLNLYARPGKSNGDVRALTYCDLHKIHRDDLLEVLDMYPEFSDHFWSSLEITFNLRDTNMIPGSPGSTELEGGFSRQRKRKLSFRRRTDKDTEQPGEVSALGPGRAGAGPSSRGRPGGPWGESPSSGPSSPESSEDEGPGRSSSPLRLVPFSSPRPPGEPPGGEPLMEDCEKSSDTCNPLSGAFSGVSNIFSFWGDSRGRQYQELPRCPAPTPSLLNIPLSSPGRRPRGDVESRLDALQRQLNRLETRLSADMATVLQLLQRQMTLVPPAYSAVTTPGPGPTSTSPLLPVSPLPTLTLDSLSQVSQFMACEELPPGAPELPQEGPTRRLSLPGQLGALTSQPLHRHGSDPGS
row,Compound,"hERG current change (%, negative = inhibition) at 10uM"
1,Cc1ccc(-c2nnc(N(C)C(=O)C3CCCO3)s2)cn1 (stereo not drawn),6.74%
2,O=C(CSc1nc(O)c(Cc2ccccc2)c(=O)[nH]1)c1ccccc1,17.8%
3,CCN1CCN(CC(=O)N2N=C(c3cccs3)CC2c2ccc(OC)cc2)C(=O)C1=O (stereo not drawn),-8.83%
4,Cc1nc(C(C)NC(=O)c2cc(COc3ccc(C)c(C)c3)on2)c(C)s1 (stereo not drawn),16.2%
5,CCOc1ccc(S(=O)(=O)N2CCCCC2)cc1NC(=O)CN1CCCC1c1cccs1 (stereo not drawn),8.64%
6,COc1ccc(C(=O)NC(=O)CSc2nnc(-c3ccco3)n2-c2ccccc2)cc1,2.28%
7,COc1cccc(-n2nc(C(=O)N3CC(C)CC(C)C3)c3ccccc3c2=O)c1 (stereo not drawn),3.43%
8,Cc1c(NS(=O)(=O)c2cc(Br)cc3c2N(C(=O)C2CC2)CC3)c(=O)n(-c2ccccc2)n1C,6.98%
9,Cc1c(C(=O)O)sc2nc(SCC(=O)Nc3ccc(S(=O)(=O)NC(C)(C)C)cc3)[nH]c(=O)c12,28.5%
10,Cc1onc(C(=O)N2CCN(c3ccccc3)CC2)c1[N+](=O)[O-],16.1%
11,O=C(OCc1cc([N+](=O)[O-])cc2c1OCOC2)c1ccc2ccccc2n1,14.3%
12,CCCn1c(SCC(=O)Nc2ccc(C(=O)Nc3ccccc3OC)cc2)n[nH]c1=O,11.9%
13,Cc1nnc(NC(=O)CSC2=NN3CCCC(=O)N=C3S2)s1,2.76%
14,C/C=C/Cn1c(Br)nc2c1c(=O)[nH]c(=O)n2C,-24.8%
15,COc1cccc(C(=O)NCc2nnc(SCC(=O)Nc3nccs3)n2-c2cccc(C)c2)c1,-18.3%
16,Cc1oc(-c2ccccc2F)nc1CS(=O)(=O)CC(=O)NCc1ccccc1Cl,-17.9%
17,O=C(c1ccc(Cl)cc1)C1CCCN(Cc2ccc3ncccc3c2)C1 (stereo not drawn),-64.3%
18,CC(C)(C)OC(=O)N1CCN(c2ccc([N+](=O)[O-])cc2)CC1,-73.3%
19,CCc1ccc(CNC(=O)C2CCCN(c3nn4c(=O)cc(C)nc4s3)C2)cc1 (stereo not drawn),-36.2%
20,Clc1ccc(Nc2nc(-c3cccs3)cs2)nc1,-1.04%
21,CN(C)S(=O)(=O)N1CCN(c2ccnc3cc(Cl)ccc23)CC1,-76.2%
22,C=CCn1c(SCC(=O)N2CCOCC2)nc2sc(C)c(C)c2c1=O,-47.6%
23,O=C(CSc1ccc(-c2ccco2)nn1)NCc1ccc(Cl)cc1,-13.3%
24,O=C(NCCc1cn2ccsc2n1)c1cccs1,0.575%
25,COc1cc(/C=N/N2CCN(Cc3ccc(Cl)cc3)CC2)ccc1OC(C)=O,-4.64%
26,O=C(NCCn1ccc2ccccc21)c1cccc([N+](=O)[O-])c1,-16.9%
27,O=C(O)c1ccccc1C1Nc2ccccc2C(=O)N1CCCN1CCOCC1 (stereo not drawn),18.4%

row,Compound,"hERG current change (%, negative = inhibition) at 10uM"
1,CCCCc1ccc(NC(=S)N2CCCC(C)C2)cc1 (stereo not drawn),-1.14%
2,CCOC(=O)/C=C/C(=O)OCC(=O)N1CCN(C(=O)c2ccco2)CC1,9.59%
3,O=C1CC2(CCCC2)CC(=O)N1c1ccccc1,18.7%
4,O=C(COc1ccc(C(=O)O)cc1)Nc1cccc(C(F)(F)F)c1,22.5%
5,CCNc1nc(Oc2ccc(Cl)cc2Cl)cc(C(F)(F)F)n1,-16%
6,CN(C)C(CNc1ccc(C(F)(F)F)cc1[N+](=O)[O-])c1ccccc1 (stereo not drawn),-25.7%
7,COc1ccc(-c2[nH]ncc2C=O)cc1,6.78%
8,CCOC(=O)C1(CCOc2ccccc2)CCN(C(=O)c2ccc(-n3cccn3)cc2)CC1,-78.9%
9,Cc1cc(C(=O)OCC(=O)c2c(N)n(C)c(=O)n(C)c2=O)c(C)o1,5.21%
10,CCOc1ccccc1Oc1cn[nH]c1-c1ccc(OC)cc1O,-9.1%
11,Cc1cccc(N2CCN(C(=O)CNC(=O)c3cccc([N+](=O)[O-])c3)CC2)c1C,-48.1%
12,CC(NC(=O)c1cc([N+](=O)[O-])cc([N+](=O)[O-])c1)C1CC2CCC1C2 (stereo not drawn),-7.55%
13,COCCn1c(SCC(=O)c2ccccc2)nc2c(c1=O)SCC2,-31.3%
14,CCN1CCN(C(CC(C)C)c2nnnn2CS(=O)(=O)c2ccc(C)cc2)CC1.Cl (stereo not drawn),1.9%
15,CCOC(=O)c1c(C)nc2c(c1-c1cc(OC)ccc1OC)C(=O)c1ccccc1-2,-5.45%
16,COC(=O)CSc1nnc(CNc2ccc(Cl)cc2)n1Cc1ccccc1,-54.7%
17,CC1=CC(=O)C(C(C)C)=C/C1=C(\c1cc(C(C)C)c(OP(=O)([O-])[O-])cc1C)c1ccccc1C(=O)O.[Na+],23.3%
18,N#C/C(=C\c1ccccc1O)C(=O)Nc1cccnc1,6.42%
19,O=C(Nc1ccccc1C(=O)O)c1cc(S(=O)(=O)N2CCCCC2)c(Cl)cc1Cl,13.2%
20,Cc1ccccc1C(=O)Nc1nnc(-c2ccco2)o1,26.4%
21,O=C(COC(=O)Cc1ccc(Cl)cc1)Nc1ccccc1F,-10.5%
22,COc1cc(NC(=S)N2CCN(CCO)CC2)cc(OC)c1,13.7%
23,C=CCn1c(O)c(C2=c3ccccc3=NC2=O)s/c1=N/c1nccs1,6.79%
24,O=C(Nc1ccc(F)cc1)C1CCN(S(=O)(=O)c2ccc3[nH]c(=O)oc3c2)CC1,-1.24%
25,Nc1nnnn1/N=C/c1ccccc1OCc1ccc(Cl)cc1Cl,-5.6%
26,CCOC(=O)C1CCCN(C(=O)CNS(=O)(=O)c2ccc(Br)s2)C1 (stereo not drawn),-23.4%
27,CCNC(=O)NC(=O)COC(=O)CCc1nc(=O)c2ccccc2n1C,4.87%
